This is one part of the list. At the low end of the ranking the order means little.

This assay has as its target T1, GST-Rok (full length) (UniProt O34857).
T1 sequence: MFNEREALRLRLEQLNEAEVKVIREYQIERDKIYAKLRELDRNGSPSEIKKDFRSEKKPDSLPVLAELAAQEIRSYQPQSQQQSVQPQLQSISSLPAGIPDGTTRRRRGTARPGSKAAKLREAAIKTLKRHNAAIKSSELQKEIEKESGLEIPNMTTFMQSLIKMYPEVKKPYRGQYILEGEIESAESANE
Put plainly: protein binding microarray.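 Further: rank score from −0.5 (least bound) to 0.5 (best bound).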 As to conditions: Rok is a gene silencer of Bacillus subtilis; high values mean tight binding; most listed sequences are background and not binding sites; double strand, one strand shown.
As to CGCTGGCC, the binding signal was -0.361 E-score. Sequence AGGTTGCA gave a binding signal of -0.143 E-score. Sequence CGGGTCAG had a binding signal of -0.295 E-score.

On to CTACGCCC, for which the binding signal is -0.384 E-score. Turning to AAAAATAC, the binding signal was determined as 0.32 E-score. GTCGCAGA returned a binding signal of -0.125 E-score. As to CCCCAAGA, the binding signal was -0.192 E-score. Sequence CAGAGGGA showed a binding signal of -0.28 E-score. The sequence AATGCCCG had a binding signal of -0.226 E-score. In turn, AAGATAAT had a binding signal of 0.286 E-score. The sequence GCGCCGGA gave a binding signal of -0.0297 E-score. AATTAGAT returned a binding signal of 0.229 E-score. For GTAACCTA, the binding signal stood at 0.125 E-score.

As for GTCCGTAA, the binding signal is -0.0162 E-score.

The sequence GGAATGCC yielded a binding signal of -0.253 E-score. Under AGAGTGCA stands -0.104 E-score.

Take GAGTCTCC: the binding signal is -0.174 E-score. Then AGCATATC, with 0.00918 E-score; and GGGTCGGA, with -0.409 E-score.

Sequence GTACTTGA came in with a binding signal of 0.11 E-score. CACCTTGC registered a binding signal of -0.217 E-score. Under AAGTTCCG stands 0.102 E-score. AGGTAAAC displayed a binding signal of 0.147 E-score. Then CAACTAAG, with -0.045 E-score. Under ACTAAAGA stands 0.0421 E-score; under GGAGATGA, -0.199 E-score. Then CGCAGATA, with 0.112 E-score; and AGTAGAGC, with -0.0815 E-score. Take ACTTCACA: the binding signal is -0.0126 E-score. Under GCTTAGAA stands -0.0146 E-score; under CATTACAC, 0.116 E-score; under ACGTTCGA, -0.0497 E-score.

As to ACTTTGTG, the binding signal amounted to 0.00735 E-score. Under CTAAAAGC stands -0.0522 E-score. Regarding CTTTTCAC, the binding signal is -0.112 E-score. Then GGTATACA, with 0.187 E-score; and CCAACTTC, with 0.0462 E-score; and ATCCCGGC, with -0.185 E-score. Then AGTGATAC, with 0.231 E-score.

As to ACACAACC, the binding signal is -0.0164 E-score. CAGAGCTA displayed a binding signal of 0.0298 E-score. Then GCACAGCA, with -0.123 E-score. For the sequence ACGGTACT, the binding signal was 0.211 E-score.

Consider CAGTTAGG, for which the binding signal was -0.0571 E-score. The sequence AGGTTGTG registered a binding signal of -0.054 E-score. Under ATTACCGC stands 0.245 E-score; under ACCTCGAA, 0.178 E-score; under CTGAACCC, -0.24 E-score. Under CGTCCTTA stands 0.0174 E-score; under GCATGCCC, -0.322 E-score; under CTGCCAGC, -0.163 E-score.

In the case of GTGTAATA, the binding signal was determined as 0.249 E-score. Then ATACGATC, with 0.0843 E-score; and CAGACTAA, with -0.0315 E-score; and CGATACGC, with -0.0456 E-score.

Consider GGGCGCCC, for which the binding signal is -0.322 E-score. Then CCTTTGCG, with -0.299 E-score; and CCTTCGAA, with -0.0681 E-score. Under CACAGTAA stands 0.146 E-score. For the sequence GCTTTTAC, the binding signal came to 0.123 E-score. For the sequence CCTCCAGC, the binding signal was -0.262 E-score. Under AAGGTATC stands 0.167 E-score; under AGCTCGAT, -0.0461 E-score.

The sequence ATATTGGG came in with a binding signal of 0.00137 E-score. Under AGCGCAAC stands 0.0919 E-score. Then AAAAGGAT, with -0.0221 E-score; and AACTGCGA, with 0.0185 E-score; and ATATGGTC, with 0.129 E-score.

With GCCACGCA, the binding signal was -0.195 E-score. Turning to ACGCCCAG, the binding signal was -0.35 E-score. Under ATTTCCCA stands 0.0391 E-score. For the sequence CGTTTAAC, the binding signal was -0.0381 E-score.

CCGCTAAA registered a binding signal of 0.0838 E-score. Sequence TCGATCGA yielded a binding signal of 0.077 E-score. Then AGAACCAG, with -0.141 E-score; and AAACGGAT, with -0.0449 E-score. Take ACTCGTCT: the binding signal came to 0.0787 E-score. Then AACCTGAC, with -0.127 E-score; and GGCGTTTA, with -0.0419 E-score. On to TAAAGACA, for which the binding signal is -0.0458 E-score.

On to AGAGCGGC, for which the binding signal is -0.236 E-score. Under ATGGTAAC stands 0.214 E-score; under CCAGTAAG, -0.205 E-score. Sequence GCCGGGTA returned a binding signal of -0.231 E-score. Under GGTTGCCA stands -0.117 E-score. As to AATCACGT, the binding signal stood at 0.164 E-score.

The sequence CATCCCGC displayed a binding signal of -0.123 E-score. Then AGTTGGAC, with -0.141 E-score. Under ACGTCTTA stands 0.00235 E-score; under CCTAGTCG, -0.13 E-score; under CACGGCAG, -0.197 E-score. Then ATACGTCA, with 0.242 E-score; and CATTGCTC, with -0.0581 E-score.

The sequence CGGCAGCA showed a binding signal of -0.221 E-score.
